We go through 44 molecules from PMC4336329 (PLoS ONE, 2015).

The whole screen tested about 310,000 compounds, of which about 14,000 (4.5%) showed an effect of 50% or more. The effect is printed as a negative number. Some of the results follow.
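Note: peak tail current of the secondary pulse compared with the same well before compound.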

In this experiment the target is human ether-à-go-go-related gene (hERG) potassium channel (human, UniProt Q12809). The experiment in a line: primary screen, population patch clamp on CHO cells stably expressing hERG.
Chain of human ether-à-go-go-related gene (hERG) potassium channel (Q12809 whole entry, looked up): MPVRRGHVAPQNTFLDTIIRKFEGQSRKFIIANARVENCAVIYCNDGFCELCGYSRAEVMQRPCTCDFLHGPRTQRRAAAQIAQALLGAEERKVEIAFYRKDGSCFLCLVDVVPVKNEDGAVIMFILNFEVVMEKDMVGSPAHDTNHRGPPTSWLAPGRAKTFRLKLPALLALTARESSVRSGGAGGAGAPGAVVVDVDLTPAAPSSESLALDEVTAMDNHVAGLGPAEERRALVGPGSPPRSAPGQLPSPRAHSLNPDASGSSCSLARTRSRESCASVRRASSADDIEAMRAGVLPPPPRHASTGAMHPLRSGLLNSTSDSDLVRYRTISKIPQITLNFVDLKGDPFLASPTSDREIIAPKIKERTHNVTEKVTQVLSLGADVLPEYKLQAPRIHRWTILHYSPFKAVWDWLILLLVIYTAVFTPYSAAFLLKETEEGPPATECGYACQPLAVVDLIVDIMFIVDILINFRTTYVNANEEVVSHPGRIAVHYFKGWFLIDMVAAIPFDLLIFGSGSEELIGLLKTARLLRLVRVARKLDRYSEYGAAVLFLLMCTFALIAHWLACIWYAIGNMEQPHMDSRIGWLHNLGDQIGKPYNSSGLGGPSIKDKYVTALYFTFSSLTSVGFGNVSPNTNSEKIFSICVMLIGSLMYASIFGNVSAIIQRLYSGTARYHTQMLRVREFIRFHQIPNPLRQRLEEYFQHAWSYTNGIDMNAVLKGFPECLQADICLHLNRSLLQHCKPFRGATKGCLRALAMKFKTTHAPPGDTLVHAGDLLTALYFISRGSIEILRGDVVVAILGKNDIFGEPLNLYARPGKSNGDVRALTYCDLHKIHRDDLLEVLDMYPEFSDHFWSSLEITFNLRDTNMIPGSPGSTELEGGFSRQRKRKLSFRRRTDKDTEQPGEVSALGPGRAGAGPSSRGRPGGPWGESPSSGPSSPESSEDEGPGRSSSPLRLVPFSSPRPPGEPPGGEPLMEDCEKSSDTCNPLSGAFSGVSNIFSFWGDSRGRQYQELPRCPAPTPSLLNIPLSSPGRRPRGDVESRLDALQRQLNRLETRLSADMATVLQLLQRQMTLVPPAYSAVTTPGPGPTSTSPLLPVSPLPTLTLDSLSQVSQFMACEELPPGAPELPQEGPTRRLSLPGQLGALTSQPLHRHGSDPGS
As to `COc1cccc(NC(=O)c2ccc[n+](C)c2)c1.[I-]`, the “hERG current change (%, negative = inhibition) at 10uM” value is reported as 18.2%.

Turning to `O=C(OCC(=O)N1CCc2ccccc21)c1ccc[nH]c1=O`, the “hERG current change (%, negative = inhibition) at 10uM” value worked out at 15.9%.

Consider `O=C(CCSc1ccccc1)NCC1CCCO1` (centres unmarked), for which the “hERG current change (%, negative = inhibition) at 10uM” value is recorded as -1.67%.

As for `Cc1ccccc1N(CC(=O)Nc1ccc(S(=O)(=O)N2CCOCC2)cc1)S(C)(=O)=O`, the “hERG current change (%, negative = inhibition) at 10uM” value is -4.47%. As to `Cc1ccc(S(=O)(=O)/N=S(/c2ccccc2)C(C)C)cc1` (centres unmarked), the “hERG current change (%, negative = inhibition) at 10uM” value is on record as 14.3%. Then `COc1ccc(-c2noc(C(=O)NCc3ccc(F)cc3)n2)cc1OC`, with -14.2%; and `CCOC(=O)c1c(C)nc2sc3c(c2c1-c1ccc(OC)cc1)NC(c1ccc(OC)cc1)NC3=O` (centres unmarked), with 11.2%; and `COc1ccc(CC(=O)N2CC3(C)CC2CC(C)(C)C3)cc1OC` (centres unmarked), with -20.2%.

Regarding `O=c1[nH]c2ccccc2cc1CN(Cc1ccco1)S(=O)(=O)c1ccccc1`, the “hERG current change (%, negative = inhibition) at 10uM” value was 11.5%.

For the molecule `CCc1nnc(NC(=O)CCC(=O)Nc2ccc(OC)cc2OC)s1`, the “hERG current change (%, negative = inhibition) at 10uM” value was 21.9%.

Take `O=C(Nc1ccccc1)C1=C[C@@H](c2coc3ccccc3c2=O)C[C@@H](OCc2ccc(CO)cc2)O1`: the “hERG current change (%, negative = inhibition) at 10uM” value is -13.5%. Regarding `CC1CC(C)CN(C(=O)c2ccc3nc[nH]c3c2)C1` (centres unmarked), the “hERG current change (%, negative = inhibition) at 10uM” value is on record as 4.05%. Then `CCCCn1cc(C(=O)c2cc(Br)ccc2O)cc(C#N)c1=O`, with 10.5%; and `Fc1ccc(-c2cc(C(F)(F)F)n3ncnc3n2)cc1`, with 26.8%. Then `CCOC(=O)c1cc2c(=O)n3ccccc3nc2n(C)c1=NC(=O)c1c(-c2c(F)cccc2Cl)noc1C`, with 14%; and `COc1ccc(O)c(C(=O)c2cnc3c(c2)c(-c2ccc(F)cc2)c(C#N)c(=O)n3C)c1`, with 12.6%.

Regarding `Cc1ccc(C)c(NC(=O)CCC(=O)N/N=C2/CC(=O)CC(C)(C)C2)c1`, the “hERG current change (%, negative = inhibition) at 10uM” value is reported as 17.4%. As to `CCCCNC(=O)C1CC(=O)N(c2ccc(OC)cc2)C1c1ccc(OC)cc1` (centres unmarked), the “hERG current change (%, negative = inhibition) at 10uM” value is -7.84%. Then `O=C(CSc1nnc(NC(=O)Cc2ccccc2)s1)NCC1CCCO1` (centres unmarked), with 15.8%; and `C/C(=N\O)c1ccc2c3c([nH]c2c1)CCCC3`, with 2.61%; and `COc1cccc(-c2coc3c(C)c4oc(=O)c(CC(=O)O)c(C)c4cc23)c1`, with 14.4%. Then `O=C(NC1CCCCCC1)c1cc(S(=O)(=O)N2CCOCC2)ccc1F`, with -5.52%. Then `COC(=O)c1cc(=O)n2c(-c3ccccc3)csc2n1`, with -2.69%.

In the case of `CC1(C)OC(C(O)(c2ccccc2)c2ccccc2)[C@@H](C(O)(c2ccccc2)c2ccccc2)O1` (some centres unmarked), the “hERG current change (%, negative = inhibition) at 10uM” value stood at 11.7%. Then `Cl.c1coc(Cn2nnnc2CN2CCN(C3CCCCC3)CC2)c1`, with -41.4%. Then `O=C(NCCCN1CCOCC1)c1ccccc1N1C(=O)[C@@H]2Cc3c([nH]c4ccccc34)C(c3cccc(Cl)c3)N2C1=O` (some centres unmarked), with -72.3%; and `Cc1c(C(=O)NC(C)C2CC3CCC2C3)cccc1[N+](=O)[O-]` (centres unmarked), with 19.5%. Then `COc1ccc(-c2nn(-c3ccccc3)cc2/C=C/C(=O)OCC(=O)Nc2cccc(C#N)c2)cc1`, with -3.43%; and `COC(=O)C(O)(c1ccc(NC(=O)NC2CCCCC2)cc1)C(F)(F)F` (centres unmarked), with 18.1%; and `Cc1ccc(-c2c(C)n([O-])c3c([n+]2=O)CCCCC3)cc1`, with 9.47%.

On to `COc1ccc(CCC(=O)NCCc2ccc(Cl)cc2)cc1`, for which the “hERG current change (%, negative = inhibition) at 10uM” value is 0.298%. In the case of `CCNC(=O)CC1C(=O)N(c2ccccc2)C(=O)N1Cc1ccc(OC)cc1` (centres unmarked), the “hERG current change (%, negative = inhibition) at 10uM” value amounted to 12.3%. Then `Nc1nonc1-c1noc(N2CCCCC2)n1`, with 7.3%; and `COc1ccc2c(c1)c(=O)cc(-c1ccccc1)n2C`, with 0.0751%; and `O=C(CN1C(=O)NC2(CCCCC2)C1=O)Nc1ccc(Cl)c(S(=O)(=O)N2CCOCC2)c1`, with 2.3%. With `O=C(CSc1ccc2ccccc2n1)N/N=C/c1ccccc1O`, the “hERG current change (%, negative = inhibition) at 10uM” value turned out to be 17.7%. On to `CN1CCCN=C1COC(=O)C(O)(c1ccccc1)C1CCCCC1.Cl` (centres unmarked), for which the “hERG current change (%, negative = inhibition) at 10uM” value is given as -3.38%.

On to `NS(=O)(=O)c1ccc(NS(=O)(=O)c2ccc(NC(=S)Nc3ccccc3)cc2)cc1`, for which the “hERG current change (%, negative = inhibition) at 10uM” value is reported as 9.49%.

`CCOC(=O)c1sc2nc(CC(=O)OC)nc(NCC(=O)OC)c2c1C`: the “hERG current change (%, negative = inhibition) at 10uM” value is recorded as -9.05%. In the case of `CCC(C)NS(=O)(=O)c1cc2c3c(c1)CCN3C(=O)CC2` (centres unmarked), the “hERG current change (%, negative = inhibition) at 10uM” value is recorded as -2.85%.

For the molecule `CCCn1c(C)c(C(=O)c2cccc3ccccc23)c2ccccc21`, the “hERG current change (%, negative = inhibition) at 10uM” value was -7.13%.

Consider `CCOC(=O)c1cc2occc2n1Cc1ccc(F)cc1`, for which the “hERG current change (%, negative = inhibition) at 10uM” value amounted to 8.07%. For `NC(=O)c1ncc(C(F)(F)F)cc1Oc1cccc(F)c1`, the “hERG current change (%, negative = inhibition) at 10uM” value is 7.09%. `O=C(OCC(=O)N1CCN(c2ccccc2)CC1)c1cc(Br)ccc1Cl`: the “hERG current change (%, negative = inhibition) at 10uM” value is recorded as -25.3%.
